Measurements: article PMC5892938
Some of the results follow. At the low end of the ranking the order means little.

Target: GST-SBP-SLBP (stem-loop binding protein) (UniProt Q14493)
Experiment: targeted RNA Bind-n-Seq;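 note: DESeq read counts versus GST-SBP nonspecific binding control pulldown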
Conditions: RBNS binding buffer: 25 mM Tris pH 7.5, 150 mM KCl, 3 mM MgCl2, 0.1% Tween, 0.5 mg/mL BSA, 1 mM DTT; 27 nM protein, 750 pM RNA pool; temperature not stated; high values mean tight binding

Row | Sequence | binding signal (log2 fold change)
1 | GGUCACGUCUCAAUCAACUCAUUCUCCAGGGAAAACCCUGGUAUAUUCAACAGCUCGCAGUCAAG | 0.155
2 | GGUCACGUCUCAAUCAACUCCUACGAGGGGGGGAAAACCCCUUUACCCUCCAAUUCAACAGCUCGCAGUCAAG | -0.164
3 | GGUCACGUCUCAAUCAACUCCUAAGAGGGGGGGAAAACCCCUUUACCCUCAUAAUCAACAGCUCGCAGUCAAG | -0.0274
4 | GGUCACGUCUCAAUCAACUCAGUCCCAGGAGUUUCCUCCUGCAUUUUCAACAGCUCGCAGUCAAG | 0.126
5 | GGUCACGUCUCAAUCAACUCAAAAGAGGGGGGGAAAACCCCUUUACCCUCGGAAUCAACAGCUCGCAGUCAAG | -0.217
6 | GGUCACGUCUCAAUCAACUCUUUUCCCAGGGAAAACCCUGGUUAAUUCAACAGCUCGCAGUCAAG | -0.169
7 | GGUCACGUCUCAAUCAACUCAAGUCCAGGAGUUUUCUCCUGCAAUUUCAACAGCUCGCAGUCAAG | 0.169
8 | GGUCACGUCUCAAUCAACUCUUCCUCAGGAGUUUACUCCUGCUUAUUCAACAGCUCGCAGUCAAG | -0.0597
9 | GGUCACGUCUCAAUCAACUCAUUCCCAGGAGUUUUCUCCUGCUAACUCAACAGCUCGCAGUCAAG | 0.00129
10 | GGUCACGUCUCAAUCAACUCAAUUCCCAGGGAAAGCCCUGGCAUAGUCAACAGCUCGCAGUCAAG | 0.0743
11 | GGUCACGUCUCAAUCAACUCCUCCGAGGGGGGGAAAACCCCUUUACCCUCAAUAUCAACAGCUCGCAGUCAAG | -0.000509
12 | GGUCACGUCUCAAUCAACUCAUUUCCCAGGGAAAGCCCUGGUUUUCUCAACAGCUCGCAGUCAAG | 0.155
13 | GGUCACGUCUCAAUCAACUCUUCUUCAGGAGUUUCCUCCUGCUUUUUCAACAGCUCGCAGUCAAG | -0.0978
14 | GGUCACGUCUCAAUCAACUCCCUAGAGGGGGGGAAAACCCCUUUACCCUCGUCUUCAACAGCUCGCAGUCAAG | -0.164
15 | GGUCACGUCUCAAUCAACUCAUUUUCAGGAGUUUGCUCCUGCUAACUCAACAGCUCGCAGUCAAG | 0.104
16 | GGUCACGUCUCAAUCAACUCAUUUUCCAGGGAAAACCCUGGUAUUUUCAACAGCUCGCAGUCAAG | 0.0417
17 | GGUCACGUCUCAAUCAACUCAUCGCCAGGAGUUUCCUCCUGUAUUCUCAACAGCUCGCAGUCAAG | -0.0278
18 | GGUCACGUCUCAAUCAACUCUACUCCAGGAGUUUACUCCUGUUUAUUCAACAGCUCGCAGUCAAG | 0.13
19 | GGUCACGUCUCAAUCAACUCUACUCCCAGGGAAAACCCUGGCUUAUUCAACAGCUCGCAGUCAAG | 0.126
20 | GGUCACGUCUCAAUCAACUCUUUUUCCAGGGAAAGCCCUGGCUAACUCAACAGCUCGCAGUCAAG | 0.15
